Changes are numbered by the printed parent chain; changes in the protein carry UniProt numbers. Some of the results follow.
T1: RBFOX1 RRM RbFoxmut (Fox-RRM*) (Homo sapiens, UniProt Q9NWB1 109-208, R118D;E147R;N151S;E152T)
T1 sequence: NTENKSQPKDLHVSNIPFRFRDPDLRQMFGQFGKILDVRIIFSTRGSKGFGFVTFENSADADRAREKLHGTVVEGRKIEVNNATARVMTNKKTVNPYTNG

B1: UGCUUGU (DNA:RNA)
RNA: GGGAGACCGGAAUUCAGAUUGUCCUGCUUGUUUAAAUCCCGUCGUAGCCACCA
DNA 1: CAATCTGAATTCCGGTCTCCC
DNA 2: TGGTGGCTACGACGGGATT
B2: ACACAUU (DNA:RNA)
RNA: B1 RNA with U25A, G26C, C27A, U28C, U29A, G30U
DNA 1: CAATCTGAATTCCGGTCTCCC
DNA 2: TGGTGGCTACGACGGGATT
B3: CGCAAUG (DNA:RNA)
RNA: B1 RNA with U25C, U28A, U29A, G30U, U31G
DNA 1: CAATCTGAATTCCGGTCTCCC
DNA 2: TGGTGGCTACGACGGGATT
B4: GCAACUC (DNA:RNA)
RNA: GGGAGACCGGAAUUCAGAUUGUCCGCAACUCUUAAAUCCCGUCGUAGCCACCA
DNA 1: CAATCTGAATTCCGGTCTCCC
DNA 2: TGGTGGCTACGACGGGATT
B5: AGGAAUU (DNA:RNA)
RNA: B4 RNA with G25A, C26G, A27G, C29A, C31U
DNA 1: CAATCTGAATTCCGGTCTCCC
DNA 2: TGGTGGCTACGACGGGATT
B6: UCGACUC (DNA:RNA)
RNA: B4 RNA with G25U, A27G
DNA 1: CAATCTGAATTCCGGTCTCCC
DNA 2: TGGTGGCTACGACGGGATT
B7: CUCUCAA (DNA:RNA)
RNA: B1 RNA with U25C, G26U, U29C, G30A, U31A
DNA 1: CAATCTGAATTCCGGTCTCCC
DNA 2: TGGTGGCTACGACGGGATT
B8: AUGUCCG (DNA:RNA)
RNA: B4 RNA with G25A, C26U, A27G, A28U, U30C, C31G
DNA 1: CAATCTGAATTCCGGTCTCCC
DNA 2: TGGTGGCTACGACGGGATT
B9: UCUACCA (DNA:RNA)
RNA: B4 RNA with G25U, A27U, U30C, C31A
DNA 1: CAATCTGAATTCCGGTCTCCC
DNA 2: TGGTGGCTACGACGGGATT

These binders were tested against T1, RBFOX1 RRM RbFoxmut (Fox-RRM*) (assay: EMSA; HiTS-Eq, 1 nM pool, 10 min; buffer printed only for the single-RNA assays: 10 mM Tris pH 7.5, 150 mM NaCl, 3.4 mM EDTA, 0.001% NP-40, 30 C). Conditions: tags: His6 N-terminal (pET28a); label: 5' 32P.
Outline: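 Purified RbFox RRM (wild type or mutant) was equilibrated for 10 min in 50 µL with 1 nM of a 5′-radiolabelled pool of RNA with 7 randomized nucleotides, its flanks annealed to DNA oligonucleotides, across increasing protein concentrations. Free RNA was separated by 8% native PAGE, excised, reverse-transcribed, PCR-barcoded and sequenced on an Illumina HiSeq 2500. Relative association constants came from read-count changes of each variant against the control reaction, normalised to the cognate motif.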

| Binder | binding signal |
| --- | --- |
| B1 | 0.428 KA relative to UGCAUGU |
| B2 | 0.081 KA relative to UGCAUGU |
| B3 | 0.126 KA relative to UGCAUGU |
| B4 | 0.0418 KA relative to UGCAUGU |
| B5 | 0.0999 KA relative to UGCAUGU |
| B6 | 0.0668 KA relative to UGCAUGU |
| B7 | 0.0667 KA relative to UGCAUGU |
| B8 | 0.14 KA relative to UGCAUGU |
| B9 | 0.077 KA relative to UGCAUGU |

— PMC9911399, “Two distinct binding modes provide the RNA-binding protein RbFox with extraordinary sequence specificity”
